Reference: the supplement of paper PMC11876631
Changes are numbered by the printed parent chain. In names and notes the source's numbering stands. ± gives the standard deviation of the averaged measurements. Laboratory Escherichia coli strains with one amino-acid change in an essential protein, pooled on minimal glucose agar with carbenicillin or gentamicin at twice the control MIC (plus kanamycin and chloramphenicol for the plasmids), 48 h. Fold change of barcode share against drug-free plates; higher = less susceptible. Active = above 20 in both replicates (the paper's putatively resistant). '<' = one read or none on drug, '>' = one read or none on a drug-free plate. Shares are relative, so most strains fall below 1 when a few take over. Listed are strains with at least 15 reads on both drug-free plates, and hits; most hits rest on fewer reference reads. Replicate rank correlation about 0.5. Edits are read from barcodes.

B1: hisG I217A (protein)
chain: MTDNTRLRIAMQKSGRLSDDSRELLARCGIKINLHTQRLIAMAENMPIDILRVRDDDIPGLVMDGVVDLGIIGENVLEEELLNRRAQGEDPRYFTLRRLDFGGCRLSLATPVDEAWDGPLSLNGKRIATSYPHLLKRYLDQKGISFKSCLLNGSVEVAPRAGLADAICDLVSTGATLEANGLREVEVIYRSKACLIQRDGEMEESKQQLIDKLLTRAQGVIQARESKYIMMHAPTERLDEVIALLPGAERPTILPLAGDQQRVAMHMVSSETLFWETMEKLKALGASSILVLPIEKMME
B2: hisG M11A (protein)
chain: B1 chain with M11A, A217I
B3: hisG M265P (protein)
chain: B1 chain with A217I, M265P
B4: hisG M11W (protein)
chain: B1 chain with M11W, A217I
B5: hisG M265W (protein)
chain: B1 chain with A217I, M265W
B6: hisG I217Q (protein)
chain: B1 chain with A217Q
B7: hisG M265A (protein)
chain: B1 chain with A217I, M265A
B8: hisG I9W (protein)
chain: B1 chain with I9W, A217I

molecular target: Escherichia coli (laboratory strain); test: barcode share on antibiotic plates over drug-free plates; higher = less susceptible; conditions: antibiotic: carbenicillin; 2× MIC (3.1 µg/mL)
Method: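 A pool of E. coli strains, each edited to carry one amino-acid change in an essential protein, was grown for 48 h on minimal glucose agar with or without antibiotic; strain barcodes were sequenced; mean of two replicates.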

| Protein | fold change of barcode share |
| --- | --- |
| B1 | 0.7 ± 0.41 |
| B2 | 0.989 ± 0.11 |
| B3 | 0.673 ± 0.077 |
| B4 | 1.19 ± 0.6 |
| B5 | 0.793 ± 0.52 |
| B6 | 0.59 ± 0.012 |
| B7 | 0.957 ± 0.12 |
| B8 | 0.393 ± 0.084 |

same assay, conditions: antibiotic: gentamicin; 2× MIC (MIC 0.45 µg/mL)

| Protein | fold change of barcode share |
| --- | --- |
| B1 | 0.0138 ± 0.011 |
| B2 | < 0.0157 |
| B3 | < 0.0219 |
| B4 | < 0.0117 |
| B5 | < 0.014 |
| B6 | < 0.00997 |
| B7 | < 0.0168 |
